The target in this assay is T1, MBP-hSnu114-ΔN (human Snu114, 130-972 aa) (human) (UniProt Q15029).
T1 sequence: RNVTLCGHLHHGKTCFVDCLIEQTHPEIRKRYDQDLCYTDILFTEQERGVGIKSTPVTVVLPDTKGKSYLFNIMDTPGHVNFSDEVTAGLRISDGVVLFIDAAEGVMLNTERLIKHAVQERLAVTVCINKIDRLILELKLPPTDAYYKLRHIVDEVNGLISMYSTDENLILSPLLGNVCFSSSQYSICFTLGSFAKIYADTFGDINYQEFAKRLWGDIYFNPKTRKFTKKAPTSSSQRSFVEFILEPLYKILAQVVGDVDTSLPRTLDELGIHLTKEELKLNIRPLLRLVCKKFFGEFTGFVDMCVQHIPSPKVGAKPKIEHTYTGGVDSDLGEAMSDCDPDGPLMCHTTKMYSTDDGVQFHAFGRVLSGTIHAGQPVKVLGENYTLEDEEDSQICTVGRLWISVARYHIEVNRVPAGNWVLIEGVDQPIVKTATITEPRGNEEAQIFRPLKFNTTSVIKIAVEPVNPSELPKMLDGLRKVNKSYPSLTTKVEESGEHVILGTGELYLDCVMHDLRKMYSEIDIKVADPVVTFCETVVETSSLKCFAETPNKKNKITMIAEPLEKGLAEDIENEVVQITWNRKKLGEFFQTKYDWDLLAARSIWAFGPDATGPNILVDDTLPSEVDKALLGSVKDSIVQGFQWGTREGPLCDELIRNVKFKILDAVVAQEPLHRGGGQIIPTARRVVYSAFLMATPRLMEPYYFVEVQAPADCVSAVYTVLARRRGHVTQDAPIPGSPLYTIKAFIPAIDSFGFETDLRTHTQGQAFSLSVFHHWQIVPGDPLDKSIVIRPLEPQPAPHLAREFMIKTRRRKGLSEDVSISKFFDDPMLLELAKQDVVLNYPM
The assay can be described thus: pull-down; MBP-hSnu114-ΔN (15 pmol, 45 nM) incubated with 33 μM GTPγS or GDP or no nucleotide, then 15 pmol GST-Cwc21 or GST-PP1; amylose beads; anti-GST HRP blot; both purified.

No constants are given. Whether binding was seen depends on the method and setting. Some binding calls cover weakened binding; strength is not graded here. Sequences can lack the tags named with a protein.

B1: GST-Cwc21 (protein, UniProt Q03375 1-135)
chain: MSYNGIGLKSAKGSSTSGHVQRSLASNNRRRPQGSQQQRQQRQNAIKKASHDKASRPLAVQKQIETHMEKREIEVQVSELRDRLEEEETLSEEQIDKKCEALRAKLTNEWQEQQRMSSLYTPRKARLTEEQHRHE
Regarding B1, the binding result was “binds”.

Values taken from paper PMC6380292.
